Laboratory results reported in paper PMC12136788.
This is one part of the list.

B1: chr10:96982068:96982170:+|CDS|ENSG00000196233|unk|FALSE|unique (ssRNA)
RNA: GGGAGUUCUACAGUCCGACGAUCUCAGCAUUGGCAUCAGAGGCAGUUUUCACUCCUAAGCAGACCCUUACAAUUCCAGCCCCUAGACAUACAGUAGAUGUGCAGCUUCCCAGAGAAGACAACCCUGAAGAACCUAGCAAGGAACAACAGAGGAUUGAGCAUCA
B2: chr12:98549999:98550103:+|3pUTR|ENSG00000120802|unk|total|mutant (ssRNA)
RNA: GGGAGUUCUACAGUCCGACGAUCUGUUUCCCAUACUGUUUUCAGCCUUUUGUUUAUAAUCCGAAAUUGUGAGAAGCUUCAUUCCGUGUUUAAAAAUGUGGGGAGAUAAAUCAGACUUAACAUGUAUGUAAGAUCAAUUCACUUCAACAGAGGAUUGAGCAUCA
B3: chrX:65741246:65741425:+|3pUTR|ENSG00000147065|msi1|total|mutant (ssRNA)
RNA: GGGAGUUCUACAGUCCGACGAUCUAUUAUGUACUCUACUGAUAUCUAAAUAUUGAUUUCUGCCUUCCUUGCUAAUGCACCAUCCGAAGAUAUCCGUCUUGGGGCAGGAUGAUUUUGGCCUCAUUACUUUACCACCCCCACACCCAACAGAGGAUUGAGCAUCA
B4: chr4:121668310:121668420:-|3pUTR|ENSG00000164111|msi1_unk|total|mutant (ssRNA)
RNA: GGGAGUUCUACAGUCCGACGAUCCCUUCAGCACCUUCCGCUGCAUUUGUAUGCCAGUGCUUAACACAUUGCCUUAUUCAUACCCGCAUGCUCAUGACCAACACAUACACGUCACCGAAGAAAACCGUGGUGCUUCUUUCUGAUCAACAGAGGAUUGAGCAUCA
B5: chr5:43486917:43487111:-|CDS|ENSG00000172244|control|control|control (ssRNA)
RNA: GGGAGUUCUACAGUCCGACGAUCUUAUAAACCAGGAUCUUCAGAAACCUUGCUAGGAGAAGUUAAUGAAAAUAGAGUAUCAAUAGCAUUGAAAAAAACCUCUGAAAUCCUUCACGAUAUUGACUGUCUUCUAUCAAACUCUAACAACAGAGGAUUGAGCAUCA
B6: chr16:31131432:31132008:-|three_prime_utr|ENSG00000052344|control|control|control (ssRNA)
RNA: GGGAGUUCUACAGUCCGACGAUCCCAUUCUUCUGGGUGUGCUUUUUGGGACCAUCACUGAGAGUCAGGAGUUUUACUGCCUGUAGCAAUGGCCAGAGCCUCUGGCCCCUCACCCACCAUGGACCAGCCCAUUGGCCGAGCUCCCAACAGAGGAUUGAGCAUCA
B7: chr7:56063203:56063317:+|3pUTR|ENSG00000146731|unk|FALSE|unique (ssRNA)
RNA: GGGAGUUCUACAGUCCGACGAUCCCCAUAUGAAAAAAGGAGAGAACACUGGCAUCUGUUGAAAUUUGGAAGUUCUGAAAUUAUAGUAUUUUUAAAAAUUGCACUGAAGUGUAUACACAUAAAGCAGGUCUUUUAUCCAGUGAACAACAGAGGAUUGAGCAUCA
B8: chr10:121967677:121967791:-|CDS|ENSG00000107672|unk|total|mutant (ssRNA)
RNA: GGGAGUUCUACAGUCCGACGAUCAAAUCCGCCCGAAGCUGAAGAACUCAUCCGUGAUGAAGACCGUCCUGAUUUUGAAUUCACCGUCUAUGACUCCUGGAAGAUAACAGGCAGAACAGCAGAAAACACCUUUAAUAAAACCCACAACAGAGGAUUGAGCAUCA
B9: chr8:88032264:88032379:-|3pUTR|ENSG00000156103|unk|total|mutant (ssRNA)
RNA: GGGAGUUCUACAGUCCGACGAUCACUCCUUAUAAUGUUGCGUCAUUAAAGGUCAAGGGGUCAUGCUAUUAAUCUCAUUGCUACCGACCAUUAACAUGACUGAACUUUUCCACAAAGUACUUAUGUUUACAAUGCUAUAACCCUCAACAGAGGAUUGAGCAUCA
B10: chr1:232398519:232398625:-|3pUTR|ENSG00000116991|unk|total|mutant (ssRNA)
RNA: GGGAGUUCUACAGUCCGACGAUCACAGCCGUUUUAUUUCCACAGCCACAUUACCACCGCAAUAAGAAAGGAGGCACCGUACACCGUUGGAAAAGCUUUGUGGGGGGAUUAAAAAAAAAAAAAAGCACUGUUGUGUUUAACACUCAACAGAGGAUUGAGCAUCA
B11: ENSG00000107863:be:win_6351|3pUTR|ENSG00000107863|bound_else_gene|NA|bound_elsewhere_windowed (ssRNA)
RNA: GGGAGUUCUACAGUCCGACGAUCGAACUUCCAUUCUUUAGUCAUUCCAGGUGGAUCUGAGUUUUAUAUUCAAACUUUUAAUACAGUUUUUGAGUUUUGUGUGACUUGAAUUUUUAAUCUUUCUGUAAAAUACGUAACUUAAAUCAACAGAGGAUUGAGCAUCA
B12: chr11:134151495:134151596:+|3pUTR|ENSG00000166086|unk|total|mutant (ssRNA)
RNA: GGGAGUUCUACAGUCCGACGAUCCCGUGCCAUGGGAACCAGGUCUGAAAAAGCCGAGAGAAGUGAAAGCCGAGUCUGGGAAGCCGCUGCCUAUAACUGAGACCCGACGGAAAAGGAAUACUCGUGUAUUUUAAGAUAUGAAUGCAACAGAGGAUUGAGCAUCA
B13: chr12:39553730:39553837:-|3pUTR|ENSG00000173208|unk|total|mutant (ssRNA)
RNA: GGGAGUUCUACAGUCCGACGAUCGAAGUAUGUUAAGCUAAGCACAGAGAAAAAAAGGCAGCAAGACAUGUUUUAUAAGAUUUCCGCAUUAAGGAAGUAUAUGAUCUGACUUUUCAGAAGAAAAUAAACAAAUGCAUUAUGUAACAACAGAGGAUUGAGCAUCA
B14: chr7:127373434:127373542:-|CDS|ENSG00000048405|unk|total|mutant (ssRNA)
RNA: GGGAGUUCUACAGUCCGACGAUCAAAACACCGUGAUUCAAAACAUGAUGGCACUUCUAACUCUCCCCGUAAAAAGUAUGAAGCCGCUGACGUCGGUAUUGAAGUAAAAGUCACAAAAAACUUUUCUCUUCACAGAUGCAAUAACAACAGAGGAUUGAGCAUCA
B15: chr1:114568131:114568247:-|CDS|ENSG00000116752|unk|FALSE|bound_elsewhere (ssRNA)
RNA: GGGAGUUCUACAGUCCGACGAUCUUCUAGUUGGGUAUCCCUGGUCAGUAAGAAUUAUGAGAUUGAACGGACUAUUGUUCAGCUAGAAAAUGAAAUCUAUCAAAUUAAGCAGCAACAUGGAGAGGCAAACAAAGAAAACAUCCGCAACAGAGGAUUGAGCAUCA
B16: chr19:48382969:48383148:-|3pUTR|ENSG00000105438|msi1_unk|FALSE|overlapping (ssRNA)
RNA: GGGAGUUCUACAGUCCGACGAUCACUUGGGCUGUUUGUAGUUUUUUGCCUUUUAGACAAGAAAAAAAAAUCUUUCCACUCUUUAGUUUUUGAUUCUGAUGACUCGUUUUUCUUCUACUCUGUGGCCCCAAUUUUUAUAAAGUGCAACAGAGGAUUGAGCAUCA
B17: chr1:90712314:90712624:-|CDS|ENSG00000143032|control|control|control (ssRNA)
RNA: GGGAGUUCUACAGUCCGACGAUCUCCAGCACCCCAUCCCCAGCUGCAGCGGCCCCUGGUGCCCCGUGUGCUCAUCCACGGCCUAGGGCCUGGGGGACAGCCAGCCCUUAAUCCAUUGUCCAGCCCCAUCCCAGGCACCCCACACAACAGAGGAUUGAGCAUCA
B18: chr7:20410151:20410448:+|3pUTR|ENSG00000105855|msi1|FALSE|unique (ssRNA)
RNA: GGGAGUUCUACAGUCCGACGAUCACUAGUGUCGUUGUAGCACUUUACUGUAAUAUAUAACUUAUUUAGAUCAGCAUAGAAUGUAGAUCCUCUGAAGAGCACUGAUUACACUUUACAGGUACCUGUUAUCCCUACGCUUCCCAGCAACAGAGGAUUGAGCAUCA
B19: chr22:44243664:44249684:-|three_prime_utr|ENSG00000138944|control|control|control (ssRNA)
RNA: GGGAGUUCUACAGUCCGACGAUCGCACCCGGUGCAGCCUCCGAGAAGAACAACUUCUACAGAGAUGCCAGGGACAGCCGAGGUAGCGGCGGUGGCACAGGAGGAAAUGCUGCCUGUGCCCAAAGCCCCCUUCCGCGGACUUCUCAACAGAGGAUUGAGCAUCA
B20: chr7:4859899:4861810:-|CDS|ENSG00000218823|control|control|control (ssRNA)
RNA: GGGAGUUCUACAGUCCGACGAUCUCUGUGCCUUCAUCUACUAGCACUAUGAAGACAGGCCCAUUGAUUAGCAGUUCUCAGGGUAGAAACAGUCCUGCCUUGGCUGUAAUGACAGCAUCUGUGGCUAACAUACAGGCUACUGAACAACAGAGGAUUGAGCAUCA
B21: chr8:23572142:23572248:+|3pUTR|ENSG00000147454|unk|FALSE|unique (ssRNA)
RNA: GGGAGUUCUACAGUCCGACGAUCCCUCCCUGGGCAGAAUGUAGCUUUUCUGCUUCACUGUGGCAGCCUCCUCCCUGGAUCCUUAGAUCCCAGAGGAGGGAAGAAAAUUUGCAGUGACUGAAAACAGUAAAAAAAAAAAAAAAACAACAGAGGAUUGAGCAUCA
B22: ENSG00000198589:be:win_7951|CDS|ENSG00000198589|bound_else_gene|NA|bound_elsewhere_windowed (ssRNA)
RNA: GGGAGUUCUACAGUCCGACGAUCCGUGAUGCAACUCUUUUGCUGUGGUAUUGGAAUGGAAAAUGCAGUGGGAUUGGAGAUAACCCAGGCAGUGAGACUGCUGCUCCUCGGGCCAUUUUGACCGGCCAUGACUAUGAGGUCACACAACAGAGGAUUGAGCAUCA

Biological target: MSI1 full-length (mouse, UniProt Q61474 1-362)
Chain of UniProt Q61474 (Q61474 whole entry): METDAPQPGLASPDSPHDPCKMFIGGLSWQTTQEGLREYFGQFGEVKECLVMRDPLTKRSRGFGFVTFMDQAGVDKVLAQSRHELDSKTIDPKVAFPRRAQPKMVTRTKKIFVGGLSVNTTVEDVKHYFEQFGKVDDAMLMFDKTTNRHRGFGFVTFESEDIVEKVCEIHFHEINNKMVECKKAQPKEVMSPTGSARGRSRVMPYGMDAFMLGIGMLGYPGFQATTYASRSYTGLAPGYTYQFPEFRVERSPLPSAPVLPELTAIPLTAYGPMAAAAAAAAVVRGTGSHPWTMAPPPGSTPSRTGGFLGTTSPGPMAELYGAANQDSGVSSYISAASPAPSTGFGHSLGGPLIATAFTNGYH
Experiment: nsRBNS (natural sequence RNA bind-n-seq); RBNS binding buffer (assumed for nsRBNS): 25 mM Tris pH 7.5, 150 mM KCl, 3 mM MgCl2, 0.01% Triton X-100, 500 ug/ml BSA, 20 U/ml SUPERase-In, 4 C; UNK is unkempt and MSI1 is Musashi-1; names of the RNAs are library labels; protein concentration not given here; high values mean tight binding

Binder | binding signal
B1 | 1.72 enrichment R
B2 | 0.426 enrichment R
B3 | 0.602 enrichment R
B4 | 0.594 enrichment R
B5 | 1.89 enrichment R
B6 | 0.442 enrichment R
B7 | 1.36 enrichment R
B8 | 0.51 enrichment R
B9 | 0.588 enrichment R
B10 | 0.46 enrichment R
B11 | 4.05 enrichment R
B12 | 0.432 enrichment R
B13 | 0.772 enrichment R
B14 | 0.241 enrichment R
B15 | 0.71 enrichment R
B16 | 5.44 enrichment R
B17 | 0.814 enrichment R
B18 | 16.1 enrichment R
B19 | 0.283 enrichment R
B20 | 0.533 enrichment R
B21 | 0.803 enrichment R
B22 | 0.42 enrichment R
